Experimental findings from publication PMC7599196 are described below.

Protein sequences, listed by entry. Tags and fused reporters are not part of them. Residues count along the entry.
UniProt P22579, residues 301-600: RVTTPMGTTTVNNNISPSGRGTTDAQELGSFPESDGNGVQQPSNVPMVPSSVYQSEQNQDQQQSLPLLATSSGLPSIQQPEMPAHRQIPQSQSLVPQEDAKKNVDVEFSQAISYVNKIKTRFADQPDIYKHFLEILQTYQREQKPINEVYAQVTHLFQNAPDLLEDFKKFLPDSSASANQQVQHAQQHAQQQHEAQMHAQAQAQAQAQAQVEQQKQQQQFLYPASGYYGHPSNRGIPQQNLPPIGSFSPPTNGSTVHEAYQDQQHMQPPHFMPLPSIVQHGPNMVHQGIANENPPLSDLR

Substitutions are numbered along the chain they refer to. Results are given in words; binding and its absence hold for the method and conditions named. Binding seen in cells or lysates may run through a third protein. Some binding calls cover weakened binding; strength is not graded here. Tags and fused reporters may be left off the sequences shown.

Holding throughout (assay): pull-down; GST fusion from E. coli immobilized on GSH Sepharose, incubated with pre-cleared total protein extract of S. cerevisiae containing the HA fusion; washing with increasing stringency, elution with 10 mM free GSH, anti-HA blot; only the target purified
Assay [1] has as its target T1, GST-Cti6_(450–506) (S. cerevisiae) (UniProt Q08923).
T1 sequence: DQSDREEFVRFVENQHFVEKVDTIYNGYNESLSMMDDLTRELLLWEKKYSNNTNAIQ

For assay [2], the target named is T2, GST-Cti6 fusion protein (amino acids 1–506, comprising full length) (S. cerevisiae) (UniProt Q08923).
T2 sequence: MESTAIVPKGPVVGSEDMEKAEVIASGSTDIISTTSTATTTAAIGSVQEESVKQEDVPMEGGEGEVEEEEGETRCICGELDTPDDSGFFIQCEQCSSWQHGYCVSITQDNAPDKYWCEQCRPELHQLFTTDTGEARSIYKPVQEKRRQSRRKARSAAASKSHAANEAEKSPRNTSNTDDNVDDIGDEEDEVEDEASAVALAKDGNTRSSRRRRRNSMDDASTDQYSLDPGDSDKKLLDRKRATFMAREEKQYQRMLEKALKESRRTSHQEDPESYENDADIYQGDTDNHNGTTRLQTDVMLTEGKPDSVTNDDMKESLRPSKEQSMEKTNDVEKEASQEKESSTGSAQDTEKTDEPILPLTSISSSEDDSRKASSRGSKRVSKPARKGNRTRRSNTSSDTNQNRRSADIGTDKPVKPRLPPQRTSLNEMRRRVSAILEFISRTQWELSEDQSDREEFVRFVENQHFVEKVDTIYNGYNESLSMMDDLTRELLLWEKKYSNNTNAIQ

Assay [3] deals with T3, GST-Cti6_(450–506) L481A (S. cerevisiae) (UniProt Q08923).
T3 sequence: T1 sequence with L32A

Assay [4] deals with T4, GST-Cti6_(450–506) V467A (S. cerevisiae) (UniProt Q08923).
T4 sequence: T1 sequence with V18A

Assay [5] deals with T5, GST-Cti6_(450–506) L491A L492A L493A (S. cerevisiae) (UniProt Q08923).
T5 sequence: T1 sequence with L42A, L43A, L44A

Regarding “HA3-Sin3_(301–600), PAH2 (from UniProt P22579 301-600) (domain or fragment)”, the binding result was “binds” in assay [1]; “binds” in assay [2]; “no binding” in assay [3]; “binds weakly” in assay [4]; “no binding” in assay [5].
